Laboratory results as given in patent publication US20090325873A1, “HUMAN GLP-1 MIMETIBODIES, COMPOSITIONS, METHODS AND USES” (CENTOCOR, INC., priority 2006, published 2009).

Legend:
[1] = target: T1, rat GLP-1 receptor (Rattus norvegicus, UniProt P32301); test: LANCE cAMP assay in INS-1E cells; assay type: cell-based; settings: fit to a hyperbola
T1 construct: INS-1E cells, a rat insulinoma cell line expressing the rat GLP-1 receptor; endogenous in cells; host or cells: INS-1E rat insulinoma cells
T1 sequence (P32301 22-463): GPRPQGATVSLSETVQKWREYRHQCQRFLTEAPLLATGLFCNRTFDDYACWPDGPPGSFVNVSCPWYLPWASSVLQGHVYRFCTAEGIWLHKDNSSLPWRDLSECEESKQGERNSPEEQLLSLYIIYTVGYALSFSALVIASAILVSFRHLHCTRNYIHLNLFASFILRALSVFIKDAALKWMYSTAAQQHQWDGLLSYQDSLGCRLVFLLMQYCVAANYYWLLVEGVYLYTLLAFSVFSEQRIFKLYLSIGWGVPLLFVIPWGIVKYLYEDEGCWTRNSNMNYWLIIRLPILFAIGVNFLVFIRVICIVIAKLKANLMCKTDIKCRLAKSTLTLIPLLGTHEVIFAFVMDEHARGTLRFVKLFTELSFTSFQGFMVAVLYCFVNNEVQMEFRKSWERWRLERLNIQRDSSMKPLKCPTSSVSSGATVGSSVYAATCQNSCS

[2] = test system: INS-1E cells; test: Insulin secretion assay in INS-1E cells; assay type: cell-based, rat; settings: 25 nM, KRBH with 6.5 mM glucose, two hours
Procedure: A further insulin secretion assay was developed to measure functional in vitro activity of the GLP-1MMB of SEQ ID NO 4. • Cell culture: INS-1E cells were cultured in RPMI 1640/10% FBS/1% L-glutamine/1% Sodium Pyruvate/1% Non-essential Amino Acids/50 μM β-Mercaptoethanol and maintained at 37° C. in a humidified incubator with 5% CO2. Data was analyzed in GraphPad PRISM, version 4.03. • Insulin Secretion Assay: INS-1E cells were plated at 100,000 cells/well in 96-well plates (Costar 3610) and allowed to recover 4 days in normal growth media. The cells were washed twice and 0.1 ml of KRBH buffer/3 mM glucose was added. The cells were allowed to equilibrate in this buffer for 2 hours. The media was removed and 0.12 ml of GLP-1MMB of SEQ ID NO 4 in KRBH with 6.5 mM glucose was added per well. Twenty microliters of supernatant was removed per well for the T=0 time point. The cells were incubated for two hours at 37° C. at 5% CO2 and twenty microliters of supernatant were removed per well. Supernatants were frozen at −20° C. until the insulin ELISA was performed. Insulin concentrations were determined using a the Ultra Sensitive Rat Insulin ELISA kit (Crystal Chem). • Results: The data was plotted as the amount of insulin secreted at each concentration of GLP-1MMB of SEQ ID NO 4 (FIG. 19).

[3] = Pharmacokinetics in cynomolgus monkeys, single iv dose; assay type: in vivo; settings: 1 mg/kg, mean
Procedure: Pharmacokinetics in monkeys: Cynomolgus monkeys were dosed intravenously with GLP-1MMB of SEQ ID NO 4 (1.0 mg/kg, lot #8833013) at Diabetes Research Institute, University of Miami (2). The monkeys were chemically restrained with ketamine HCl (100 mg/mL, 10 mg/kg) prior to dosing and blood collections. GLP-1MMB of SEQ ID NO 4 was administered at a dose volume of 2.2 mL/kg at a rate of 1 mL/minute. Approximately 2 mL of blood was collected at various time points following dosing in sodium citrate (3.8%) containing protease inhibitors (Roche Complete EDTA free, Roche Applied Science, Indianapolis, Ind.) and DPP4 inhibitors (Linco, St. Charles, Mo.). Plasma was isolated and stored at −80° until samples could be analyzed. GLP-1MMB of SEQ ID NO 4 concentrations in the plasma was measured as described above.
Data analysis: Non-compartmental analysis (NCA) was employed to calculate the pharmacokinetic parameters of GLP-1MMB of SEQ ID NO 4 (WinNonlin, Version 5.1, Pharsight Corporation, Mountain View, Calif.). The maximum serum concentration, Cmax and the time to reach Cmax (Tmax), were obtained from inspection of the serum concentration vs. time profiles. The area under the concentration curve (AUC) from time 0 to the last time point with quantifiable levels of GLP-1MMB of SEQ ID NO 4 was calculated (AUC (0-7d) for rat, AUC (0-21d) for monkey), as well as the AUC from time 0 to infinity. The AUC values were obtained by linear trapezoidal integration. The terminal rate constant (λz) was determined by least-squares regression analysis of the log-linear portion of the terminal phase. The terminal half-life, t½, was calculated from the ratio of 0.693 and λz.

[4] = test system: wild type mice; test: Food intake in wild type mice; assay type: in vivo; settings: single iv GLP-1 MMB 1 mg/kg, exendin-4 0.07 mg/kg
[5] = test system: GLP-1R−/− mice; test: Food intake in GLP-1R−/− mice; assay type: in vivo; settings: single iv GLP-1 MMB 1 mg/kg, exendin-4 0.07 mg/kg
[6] = test system: wild type mice; test: Gastric emptying in wild type mice; assay type: in vivo; settings: iv GLP-1 MMB 1 mg/kg, exendin-4 0.07 mg/kg
Procedure: (§1) Materials/Methods: Animals: Male GLP-1R−/− and age matched wild type mice were randomized into three treatment groups (n=5) based on body weight and fasting blood glucose. […] The next morning mice were re-fed for 1 h, food intake was recorded and the mice were deprived of food for the rest of the study. Mice were dosed intravenously as discussed above. Two hours post-dosing mice were euthanized. The stomach was exposed by laparotomy, ligated at both the pylorus and cardia and removed. The stomach content wet weight was measured. Equation 1 was used to calculate the percent of food remaining in the stomach.
(§2) (Stomach Content Wet Weight(g)/Food Intake(g))*100 Equation (1)

[7] = test system: GLP-1R−/− mice; test: Gastric emptying in GLP-1R−/− mice; assay type: in vivo; settings: iv GLP-1 MMB 1 mg/kg, exendin-4 0.07 mg/kg
Procedure: as §1, §2

maximal amount of secreted cAMP [1]: 48.3 nM
B1: GLP-1 MMB of SEQ ID NO 4: GLP-1 mimetibody of SEQ ID NO 4 (protein, listed as Homo sapiens)
chain: HSEGTFTSDVSSYLEGQAAKEFIEWLVKGRGGGSGGGSGTLVTNSS[human IgG4 Fc with S228P F234A L235A (EU numbers) omitted]
amount of insulin secreted into the supernatant [2]: significantly increased the amount of insulin secreted
AUC(0-21) [3]: 41.92 µg·days/mL
AUCinf [3]: 42.05 µg·days/mL
Cl [3]: 1.034 mL/h/kg
Cmax [3]: 40090 ng/mL
Vss [3]: 0.05018 L/kg
Vz [3]: 0.1054 L/kg
t½ ([3]; listed as GLP-1MMB): 69.6 h
t½ ([3]; listed as GLP-1MMB of SEQ ID NO 4, 1 mg/kg): 70.3 h
24 hour cumulative food intake vs CNTO1996 [4]: statistically significant reduction in food intake
24 hour cumulative food intake [5]: no effect on food intake
stomach content (percent of food remaining) 2 h after dosing vs CNTO1996 [6]: statistically significant increase in stomach content
gastric emptying 2 h after dosing [7]: no effect on gastric emptying
